Over roughly 81,000 sequences, “one-hybrid fitness for binding parS DNA” has its median near -0.17; the highest 2% begin near 0.51. The list shows a part of the results.
B1: Caulobacter ParB omega fusion; a variant is named by its letters at X, in order, B8GW30 (parent)
chain: MESVVVGEPGMSEGRRGLGRGLSALLGEVDAAPAQAPGEQLGGSREAPIEILQRNPDQPRRTFREEDLEDLSNSIREKGVLQPILVRPSPDTAGEYQIVAGERAWRAAQRAGLKTVPIMVRELDDLAVLEIGIIENVQRADLNVLEEALSYKVLMEKFERTQENIAQTIGKSXSHVANXMRLLXLPDEVQSYLVSGELTAXHARAIAAAADPVALAKQIIEGGLSVRETEALARKAPNLSAGKSKGGRPPRVKDTDTQALESDLSSVLGLDVSIDHRGSTGTLTITYATLEQLDDLCNRLTRGI

Variants of: B1
Assay: one-hybrid fitness for binding parS DNA (scaled: cognate 1, non-cognate 0); higher = stronger binding
Conditions: with parS DNA site
In short: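 On M9-minus-histidine containing 0.1 mM IPTG and 5 mM 3-AT, E. coli USO cells with a HIS3 reporter, site 19 bp from the promoter, grew 48 hours at 37°C to select Caulobacter ParB libraries randomised at four specificity codons. Plasmids from before and after were Illumina-sequenced, with three replicate libraries pooled and variants under 10 reads left out. Fitness is the log change in variant-to-wild-type read ratio, rescaled against cognate and non-cognate.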

Row | Variant | one-hybrid fitness for binding parS DNA
1 | SYYT | ≤ 0.2
2 | YNDG | ≤ 0.2
3 | PWIR | ≤ 0.2
4 | DGLC | ≤ 0.2
5 | NPWC | ≤ 0.2
6 | GLWC | ≤ 0.2
7 | EPYE | ≤ 0.2
8 | HRPV | ≤ 0.2
9 | IYRL | ≤ 0.2
10 | QNDS | ≤ 0.2
11 | RGTF | ≤ 0.2
12 | DDPN | ≤ 0.2
13 | PHTA | ≤ 0.2
14 | HRDC | ≤ 0.2
15 | FEYR | ≤ 0.2
16 | VDQH | ≤ 0.2
17 | PRLT | ≤ 0.2
18 | QNIP | ≤ 0.2
19 | TDLI | ≤ 0.2
20 | CIHW | ≤ 0.2
21 | TETQ | ≤ 0.2
22 | SLKH | ≤ 0.2
23 | APHT | ≤ 0.2
24 | SHHT | ≤ 0.2
25 | RHTY | 0.41
26 | KFGT | ≤ 0.2

Row | Variant | one-hybrid fitness for binding parS DNA
27 | MKRD | ≤ 0.2
28 | DRLG | ≤ 0.2
29 | MRAD | ≤ 0.2
30 | HHAS | ≤ 0.2
31 | FVIR | ≤ 0.2
32 | YFES | ≤ 0.2
33 | DHNG | ≤ 0.2
34 | FCHT | ≤ 0.2
35 | LSYC | ≤ 0.2
36 | MRKH | ≤ 0.2
37 | AKDD | ≤ 0.2
38 | HIPF | ≤ 0.2
39 | LRSG | ≤ 0.2
40 | FLYR | ≤ 0.2
41 | ARKR | ≤ 0.2
42 | VSWS | ≤ 0.2
43 | SQCS | ≤ 0.2
44 | WQRG | ≤ 0.2
45 | TPAF | ≤ 0.2
46 | LFIV | ≤ 0.2
47 | GNPV | ≤ 0.2
48 | WPLG | ≤ 0.2
49 | EYYC | ≤ 0.2
50 | FTYI | ≤ 0.2
51 | QIPD | ≤ 0.2
52 | EKAN | ≤ 0.2

Row | Variant | one-hybrid fitness for binding parS DNA
53 | KMVG | ≤ 0.2
54 | GQRS | ≤ 0.2
55 | RNIW | ≤ 0.2
56 | GTFW | ≤ 0.2
57 | YPNC | ≤ 0.2
58 | DGVT | ≤ 0.2
59 | IGDT | ≤ 0.2
60 | QFMV | ≤ 0.2
61 | DSGW | ≤ 0.2
62 | TPCM | ≤ 0.2
63 | QHCA | ≤ 0.2
64 | TNSF | ≤ 0.2
65 | PIND | ≤ 0.2
66 | PVCS | ≤ 0.2
67 | EGCT | ≤ 0.2
68 | HTFF | ≤ 0.2
69 | QAPV | ≤ 0.2
70 | RTPQ | ≤ 0.2
71 | GFGG | ≤ 0.2
72 | MRHK | ≤ 0.2
73 | PANM | ≤ 0.2
74 | FAFI | ≤ 0.2
75 | PMIP | ≤ 0.2
76 | CMQS | ≤ 0.2
77 | DTGT | ≤ 0.2
78 | WLYG | ≤ 0.2

Row | Variant | one-hybrid fitness for binding parS DNA
79 | RCSE | ≤ 0.2
80 | NRRI | ≤ 0.2
81 | ASHS | ≤ 0.2
82 | VWAD | ≤ 0.2
83 | SHHE | ≤ 0.2
84 | LDWR | ≤ 0.2
85 | GCPM | ≤ 0.2
86 | KTFF | ≤ 0.2
87 | QYHY | ≤ 0.2
88 | MPNG | ≤ 0.2
89 | QYML | ≤ 0.2
90 | VDTI | ≤ 0.2
91 | PMCT | ≤ 0.2
92 | HELV | ≤ 0.2
93 | KSVW | ≤ 0.2
94 | RSDN | 0.313
95 | KKQM | ≤ 0.2
96 | WIKT | ≤ 0.2
97 | NRQW | ≤ 0.2
98 | TNLR | ≤ 0.2
99 | AIQT | ≤ 0.2
100 | QCFL | ≤ 0.2
101 | PVWF | ≤ 0.2
102 | MYVI | ≤ 0.2
103 | ERSF | ≤ 0.2
104 | PRDS | ≤ 0.2

Row | Variant | one-hybrid fitness for binding parS DNA
105 | PHQY | ≤ 0.2
106 | YWMS | ≤ 0.2
107 | YEKK | ≤ 0.2
108 | TWNS | ≤ 0.2
109 | YVMR | ≤ 0.2
110 | GTKM | ≤ 0.2
111 | ASIW | ≤ 0.2
112 | KSTS | ≤ 0.2
113 | EAPA | ≤ 0.2
114 | MDCF | ≤ 0.2
115 | AAKH | ≤ 0.2
116 | LATI | ≤ 0.2
117 | IQMR | ≤ 0.2
118 | QSSP | ≤ 0.2
119 | TVWR | ≤ 0.2
120 | QLFW | ≤ 0.2
121 | GHAR | ≤ 0.2
122 | WTDR | ≤ 0.2
123 | VLGS | ≤ 0.2
124 | RYTV | ≤ 0.2
125 | IYGS | ≤ 0.2
126 | NKSV | ≤ 0.2
127 | FIKS | ≤ 0.2
128 | DIMG | ≤ 0.2
129 | RIWM | 0.361
130 | QRVW | ≤ 0.2

Row | Variant | one-hybrid fitness for binding parS DNA
131 | SMTL | ≤ 0.2
132 | QTCC | ≤ 0.2
133 | ARRN | ≤ 0.2
134 | AERY | ≤ 0.2
135 | PYSW | ≤ 0.2
136 | LMPK | ≤ 0.2
137 | HGRL | ≤ 0.2
138 | PVQV | ≤ 0.2
139 | TVLV | ≤ 0.2
140 | MFVW | ≤ 0.2
141 | LGTF | ≤ 0.2
142 | RQSR | ≤ 0.2
143 | CTPT | ≤ 0.2
144 | HAWR | ≤ 0.2
145 | HFFG | ≤ 0.2
146 | SAKL | ≤ 0.2
147 | ETIG | ≤ 0.2
148 | AMSE | ≤ 0.2
149 | TPYV | ≤ 0.2
150 | NVNC | ≤ 0.2
151 | MACL | ≤ 0.2
152 | HPRT | ≤ 0.2
153 | NPLC | ≤ 0.2
